Reference: PubChem BioAssay AID1347044 (National Center for Advancing Translational Sciences (NCATS), 2019)
The other results are listed elsewhere or left out. The main result of the screen is listed elsewhere. These columns were measured beside it and carry no call. Compounds called inactive in the main read-out are mostly missing here. Potencies come from curve fits of mixed quality, noted in brackets.

assay: Natriuretic polypeptide receptor (hNpr1) antagonism - Confirmation; conditions: HEK293 hNpr1 cGMP GloSensor luminescence, ANP-stimulated; measured here: HEK-hNpr1 cytotoxicity, CellTiter-Glo; further: nearly all actives have a fitted effect of over 70% in size
Procedure, shortened: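 HEK293 cells expressing hNpr1 and the pGS-40F GloSensor cGMP sensor, loaded with 2% GloSensor reagent for 2 h, then treated 30 min with compound at room temperature. Luciferase luminescence read before and 20 min after 0.1 nM hNppA stimulation.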
Tags describe the fitted curve by direction and shape.

| SMILES | CC50 |
| --- | --- |
| O=C1COc2ccc(NCCOc3ccccc3)nc2CN1Cc1ccccc1F | 35.3 µM [falling, partial curve] |
| CCC(C)NC(=O)N1CC(Oc2ccc(-c3nc(-c4ccccc4)no3)cc2)C1 (stereo unspecified) | 1.72 µM [falling, full curve] |
| COc1ccc(CN2C[C@@H](F)[C@@H](OCc3nc4ccc(C(F)(F)F)cc4[nH]3)C2)cn1 | 31.4 µM [falling, partial curve] |
| CCc1ccc(C(=O)N2CCN(c3cc(-c4ccc(F)cc4)[nH]n3)CC2)cc1 | 30.6 µM [falling, single point] |
| Cc1ccc2nc3n(c2c1)[C@@H](CNCc1ccc2c(c1)OCO2)COC3 | 31.4 µM [falling, partial curve] |
| Cc1ccc(C(=O)N2CCC(Cc3nc(-c4ccccc4)no3)CC2)s1 | 17.2 µM [falling, partial curve] |
| Cc1cccc(-c2cnc3[nH]cc(CC(=O)N4CCOCC4)c3c2)c1 | 31.4 µM [falling, partial curve] |
| CCOc1ccc(C(=O)N2CCC(Cc3nc(-c4ccc(F)cc4)no3)CC2)cc1OCC | 3.43 µM [falling, full curve] |
| CC(=O)Nc1ccc(C(=O)N2CCC3(CC2)N=C(c2ccc(Cl)cc2)NO3)cc1 | 17.2 µM [falling, partial curve] |
| CN(Cc1cccnc1)c1ccc2ncc(Nc3ccc(C(F)(F)F)cc3)n2n1 | 22.2 µM [falling, partial curve] |
| COc1cc(NC(=O)c2cc3n(n2)CC(c2ccc(Br)cc2)OC3)cc(OC)c1OC (stereo unspecified) | 24.3 µM [falling, partial curve] |
| O=C(Cc1ccsc1)N1CCC(Cc2nc(-c3ccc(F)cc3)no2)CC1 | 7.69 µM [falling, full curve] |
| COc1ccc2nc3n(c2c1)[C@@H](CNCc1ccc(C(F)(F)F)cc1)COC3 | 35.3 µM [falling, partial curve] |
| Cc1ccccc1C(=O)N1CCN(c2cc(-c3ccc(Cl)cc3)[nH]n2)CC1 | 21.7 µM [falling, partial curve] |
| O=C1Nc2ccccc2OCC12CCN(Cc1ccc(C(F)(F)F)cc1)CC2 | 21.7 µM [falling, partial curve] |
| OC1CC(c2cc(NCCCn3ccc4ccccc43)ncn2)C1 (stereo unspecified) | 19.3 µM [falling, partial curve, poor fit] |
| COc1ccc(-c2noc(CC3CCN(C(=O)c4ccccc4OC)CC3)n2)cc1 | 13.7 µM [falling, partial curve] |
| O=C(c1ccc(C(F)(F)F)cc1)N1CCC2(CNc3ccccc3[S+](=O)([O-])N2)C1 (stereo unspecified) | 24.3 µM [falling, partial curve] |
| O=C(CCCc1c[nH]c2ccccc12)N1CCC(c2noc(COc3ccc(F)cc3)n2)CC1 | 21.7 µM [falling, partial curve] |
| COc1ccc(C2Cn3nnc(C(=O)N4CCN(C(=O)Cc5ccccc5C)CC4)c3CO2)cc1 (stereo unspecified) | 19.3 µM [falling, partial curve] |
| O=C(Cc1c[nH]c2ncc(-c3ccccc3C(F)(F)F)cc12)N1CCOCC1 | 19.8 µM [falling, partial curve] |

| SMILES | CC50 |
| --- | --- |
| COC(=O)c1cccc(C(=O)N2CCC(Cc3nc(-c4ccc(OC)cc4)no3)CC2)c1 | 10.9 µM [falling, partial curve] |
| Clc1cnccc1CN1CCNc2cnc(Oc3ccccc3)cc2C1 | 11.1 µM [falling, partial curve] |
| CN(Cc1cccnc1)Cc1nc(C2(O)CCN(Cc3ccc(C(F)(F)F)cc3)CC2)cs1 | 0.685 µM [falling, full curve] |
| CC1=NS(=O)(=O)N(C)C=C1C(=O)OCc1noc(-c2ccccc2F)n1 | 19.3 µM [falling, partial curve] |
| COc1ccc(C(=O)N2CCC(Cc3nc(-c4ccccc4)no3)CC2)cc1F | 4.32 µM [falling, full curve] |
| Cc1nn(-c2ccc(F)cc2)c(Oc2ccc(F)cc2F)c1CCC(=O)NCC1CC1 | 27.3 µM [falling, single point] |
| O=C(CC(c1ccc(F)cc1)c1cn(Cc2ccccc2)c2ccc([N+](=O)[O-])cc12)N1CCOCC1 (stereo unspecified) | 38.5 µM [falling, single point] |
| Cc1cccc(CN2CCc3nc(C(=O)Nc4ccc(Cl)cc4)oc3CC2)c1 | 28 µM [falling, partial curve] |
| C[S+](=O)([O-])c1ccc(-c2cc(C(=O)NCCc3ccc(Cl)cc3)nn3cccc23)cc1 | 9.68 µM [falling, partial curve] |
| CCCS(=O)(=O)N1CC(Oc2ccc(-c3noc(-c4cccnc4)n3)cc2)C1 | 19.3 µM [falling, partial curve] |
| O=C1N(CC2CC2)CCOC12CCN([S+](=O)([O-])c1ccc(C(F)(F)F)cc1)CC2 | 22.2 µM [falling, partial curve] |
| CCCc1ccc2oc(C(=O)N(CC)Cc3ccncc3)c(C)c2c1 | 19.3 µM [falling, partial curve] |
| CCc1cc(N2CCCC(C(=O)c3sccc3C)C2)ncn1 (stereo unspecified) | 15.3 µM [falling, partial curve] |
| COc1cccc(S(=O)(=O)N2CCC3(CC2)CC(N(C)Cc2ccccc2)CCO3)c1 (stereo unspecified) | 21.7 µM [falling, partial curve] |
| CC(C)c1noc(-c2cn(C3CCN(C(=O)c4cccc(Br)c4)C3)nn2)n1 (stereo unspecified) | 24.3 µM [falling, partial curve] |
| COc1ccc(C2Cn3nnc(C(=O)N4CCN(C(=O)Cc5cccc(F)c5)CC4)c3CO2)cc1 (stereo unspecified) | 24.3 µM [falling, partial curve] |
| COc1cccc(-c2noc(CC3CCN(C(=O)c4ccccc4)CC3)n2)c1 | 21.7 µM [falling, partial curve] |
| N#Cc1ccc(CN2CCC3(CC2)CC(=O)c2ccccc2O3)cc1 | 31.4 µM [falling, partial curve] |
| COc1ccc(C(=O)N[C@H]2CO[C@H]3[C@@H]2OC[C@H]3OC(=O)Nc2ccccc2)cc1 | 39.6 µM [falling, partial curve, poor fit] |
| Cc1cccc(-n2ncc3c2CCCC3NC(=O)CCC(F)(F)F)c1C (stereo unspecified) | 34.3 µM [falling, single point] |
| COc1ccc(C(=O)N2CCC(n3cc(-c4nc(-c5ccccc5)no4)nn3)CC2)cc1 | 21.7 µM [falling, partial curve] |

| SMILES | CC50 |
| --- | --- |
| COc1cc(Cl)ccc1C(=O)N1CCN(c2cc(-c3cccs3)[nH]n2)CC1 | 21.7 µM [falling, partial curve] |
| O=C(c1ccc(F)cc1)N1CCC(n2cc(-c3nc(-c4ccccc4)no3)nn2)CC1 | 21.7 µM [falling, partial curve] |
| O=C(Nc1ccc(F)c(Cl)c1)C1CCc2sc(C(=O)N3CCOCC3)cc2C1 (stereo unspecified) | 17.2 µM [falling, partial curve] |
| Cc1nc(N2CCC(C(=O)NC3CCc4ccccc43)CC2)cc(C(F)(F)F)n1 (stereo unspecified) | 21.7 µM [falling, partial curve] |
| O=C(Nc1ccc(Cl)cc1)c1nc2c(o1)CCN(Cc1cccc(F)c1F)CC2 | 22.2 µM [falling, partial curve] |
| Cc1ccc(S(=O)(=O)N2CCc3c(C(=O)NCC(C)C)cccc32)cc1 | 27.3 µM [falling, partial curve, poor fit] |
| CC1(C)[C@H](Cc2cc(CN3CCN(c4ccccc4)CC3)on2)C[C@@H]1NC(=O)NCc1ccccc1 | 21.7 µM [falling, partial curve] |
| Cn1nc(C2CCN(S(=O)(=O)c3ccc4c(c3)CCCC4)CC2)n(C2CCCC2)c1=O | 21.7 µM [falling, partial curve] |
| COC(=O)c1cccc(C(=O)N2CCC(Cc3nc(-c4ccc(F)cc4)no3)CC2)c1 | 9.68 µM [falling, partial curve] |
| O=C(c1ccc(F)cc1Cl)N1CCN(c2cc(-c3ccc(F)cc3)[nH]n2)CC1 | 17.2 µM [falling, partial curve] |
| COc1ccc(C2(C(=O)N3CCC(Cc4nc(-c5ccc(F)cc5)no4)CC3)CC2)cc1 | 8.62 µM [falling, partial curve] |
| COc1ccc(S(=O)(=O)N2CCc3c(C(=O)Nc4cccc(C)c4)cccc32)cc1 | 21.7 µM [falling, partial curve, poor fit] |
| COc1cc(NC(=O)Cn2c(N(C)Cc3ccccc3)nc(C)cc2=O)cc(OC)c1OC | 12.2 µM [falling, partial curve] |
| COc1ccc(Nc2cnc3ccc(-c4ccccc4OC)nn23)cc1OC | 28 µM [falling, partial curve] |
| COC(=O)c1ccc(COC(=O)C2=CN(C)S(=O)(=O)N=C2C)o1 | 17.2 µM [falling, partial curve] |
| O=C(Cc1c[nH]c2ncc(-c3ccccc3Oc3ccccc3)cc12)NCc1cccnc1 | 31.4 µM [falling, partial curve] |
| CCc1cnc(N2CCC(Oc3cnc4c(ccn4CCN[S+](C)(=O)[O-])c3)CC2)nc1 | 12.2 µM [falling, partial curve] |
| Cc1ccccc1CN1CC[C@@H]2OCC(=O)N(C(C)C)[C@H]2CC1 | 8.86 µM [falling, full curve] |
| CC(C)c1ccc(CN2CCC3(CC2)OCCN(c2ccc(F)cc2)C3=O)cc1 | 28 µM [falling, partial curve] |
